# Laboratory results as given in PubChem BioAssay AID938 (National Center for Advancing Translational Sciences (NCATS), 2007).
# Hit rate of the full screen: of about 73,000 compounds, about 1,800 (2.5%) were called active. Inconclusive results, whose numbers are uncertain, are shown with a selection of clear calls. The call rests on the fitted dose curve; in most records, active means well fitted activation curve with a large enough effect; inconclusive means small, poorly fitted or top-dose-only effect; inactive means no such curve, though single readings can be large or run the other way. No potency is given beside an inconclusive call; the fits are too rough.
# Assay: qHTS Assay for Agonists of the Thyroid Stimulating Hormone Receptor: Activators of Intracellular cAMP Concentrations in Parental HEK 293; further: nearly all actives have a fitted effect of over 55% in size; on activation: % of control where 0% means no effect
# Settings: parental HEK293 CNG cAMP sensor, membrane potential fluorescence; activation: at 57.1 µM (top of the series) unless noted
# Summary of the method: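 Parental HEK 293 cells stably expressing a modified CNG channel (no TSHR) report cAMP rise as membrane depolarization. Membrane potential dye with 100 uM RO 20-1724 was loaded for 60 min at room temperature, then compound added for 30 min; fluorescence read at 590 nm.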
# Potency means the concentration at half of the fitted maximal effect; tags describe the fitted curve by direction and shape.
Structure (SMILES),Potency,activation
CCCC/C=C/C(NC(=O)CCc1ccccc1)c1ccccc1 (stereo not given),active: 10 µM,–
C1=C(c2ccc(-c3ccccc3)cc2)Nc2ncnn2C1c1ccco1 (stereo not given),"inconclusive [activator, single point]",–
O=C(NCc1ccco1)c1cc2sccc2n1Cc1ccc(F)cc1,"inconclusive [activator, single point]",–
Cc1ccc(C2CCN(C(=O)Nc3ccccc3)C2)cc1 (stereo not given),"inconclusive [activator, partial curve]",–
c1ccc(Cn2nnc3c(N4CCCCCC4)ncnc32)cc1,inactive,–
COc1ccccc1CCn1c(=O)c(-c2cccc(Cl)c2)nc2cncnc21,"inconclusive [activator, partial curve]",–
Cc1cc(C)c2cc(CN(Cc3cccs3)Cc3nnnn3CC3CCCO3)c(=O)[nH]c2c1 (stereo not given),"inconclusive [activator, full curve]",–
CC(C)Sc1nc(O)c(Cc2ccccc2)c(=O)[nH]1,"inconclusive [activator, single point]",–
c1coc(-c2nc3ccccc3nc2-c2ccco2)c1,"inconclusive [activator, single point]",–
CCOc1ccc(C2/C(=C(/O)c3ccc(Cl)cc3)C(=O)C(=O)N2CCCN(C)C)cc1OC (stereo not given),"inconclusive [activator, single point]",–
COc1ccccc1-c1cncnc1NCc1cccc(C)c1,"inconclusive [activator, partial curve]",–
COC(=O)c1ccc2c(=O)n(CCCCCC(=O)N3CCN(c4ccccc4)CC3)c(=O)[nH]c2c1,"inconclusive [activator, single point]",–
COc1cccc(Nc2ncc3ncc(=O)n(C4CC4)c3n2)c1,"inconclusive [activator, single point]",–
O=C(C1CC1)N1CCc2cc(S(=O)(=O)NCC3COc4ccccc4O3)ccc21 (stereo not given),"inconclusive [activator, partial curve]",–
O=C(c1cccc(F)c1)N1CCC2(CCN(Cc3nccs3)CC2)CC1,"inconclusive [activator, single point]",–
Cc1cccc(Nc2ncnc3nc[nH]c23)c1,"inconclusive [activator, single point]",–
CCOC(=O)c1[nH]c(COC(=O)C2CC(=O)N(Cc3ccccc3)C2)c(C(=O)OCC)c1C (stereo not given),active: 25.1 µM,–
CCCn1nc(C(=O)Nc2cccc(C(=O)OC)c2)c2ccccc2c1=O,"inconclusive [activator, single point]",–
COC(=O)c1cccc(COC(=O)CNC(=O)c2ccco2)c1,"inconclusive [activator, single point]",–
COc1ccccc1-c1noc(CCC(=O)Nc2cc(C(F)(F)F)ccc2Cl)n1,"inconclusive [activator, partial curve]",–
CCOCC(=O)Nc1c(C(=O)OCC)oc2ccccc12,"inconclusive [activator, partial curve]",–
CCCC(=O)Nc1nc2ccc(OC)cc2s1,"inconclusive [activator, single point]",–
CCCn1c(-c2ccc(F)cc2)nc2c(NC3CC4CCC(C3)N4C)nc(C)nc21 (stereo not given),"inconclusive [activator, full curve]",–

Structure (SMILES),Potency,activation
COc1ccc(CN(CCCN2CCOCC2)C(=O)Nc2cccc(Cl)c2)cc1OC,"inconclusive [activator, single point]",–
CCCCNC(=O)C(C#N)c1nc2ccccc2nc1N1CCCC1 (stereo not given),inactive,–
CCNc1ncc2ncc(=O)n(Cc3cccc(OC)c3)c2n1,"inconclusive [activator, partial curve]",–
COC(=O)[C@@]1(Cc2ccc(F)cc2)[C@H]2c3cc(C(=O)N4CCCC4)n(CCF)c3C[C@H]2CN1C(=O)c1ccccc1,"inconclusive [activator, full curve]",–
Cc1ccc(-n2nnnc2SCC(=O)c2cc(C)n(-c3cc(C)on3)c2C)cc1,"inconclusive [activator, full curve, poor fit]",–
O=C(C1CCCCC1)N(Cc1nc2sc3c(c2c(=O)[nH]1)CCCC3)Cc1cccs1,"inconclusive [activator, partial curve]",–
Nc1cc(C(=O)O)[nH]c(=O)n1,"inconclusive [activator, partial curve]",–
Clc1ccc2c(N3CCCC3)ccnc2c1,inactive,–
Cc1nc(NCCO)c2nc(-c3ccccc3)n(CCN(C)C)c2n1,inactive,–
Oc1ccc(-c2nc3ncccn3c2Nc2ccc3c(c2)OCO3)cc1,–,inactive: -14.1% [at 2.29 µM]
CCCC[C@@H]1C[C@H]1C(NC(=O)c1ccc(C(F)(F)F)cc1)c1ccc(C(=O)OC)cc1 (stereo not given in full),"inconclusive [activator, full curve, poor fit]",–
c1ccc(-c2nc(NCCCN3CCOCC3)c3ccccc3n2)cc1,inactive,–
Cc1nc(C)c(C(=O)Nc2cccc(C)c2C)o1,inactive,–
CCCSc1nnc(-c2cccc(S(=O)(=O)N(C)C)c2)n1-c1cc(OC)ccc1OC,active: 7.94 µM,–
N[C@@H](CSCc1ccccc1)C(=O)O,–,inactive: 6.12% [at 11.4 µM]
Cc1cc(=O)[nH]c(Nc2ccc(C(=O)OC(C)C)cc2)n1,inactive,–
CCOC(=O)NC(Nc1ncccn1)(C(F)(F)F)C(F)(F)F,"inconclusive [activator, single point]",–
CCOc1ccc(-c2nc(-c3ccccc3C)no2)cc1,inactive,–
COc1ccc(-c2nc3cnc(N4CCOCC4)nc3n(-c3ccccc3)c2=O)cc1,"inconclusive [activator, single point]",–
COc1ccccc1-c1nc(NCc2cccs2)c2ccccc2n1,active: 25.1 µM,–
COc1ccc(-n2c(SCC#N)nc3ccccc3c2=O)cc1,"inconclusive [activator, partial curve]",–
CS(=O)(=O)Nc1cccc(-c2ccc3ncnc(Nc4ccc(F)cc4)c3c2)c1,"inconclusive [activator, single point]",–
